According to PubChem BioAssay AID686978 (National Center for Advancing Translational Sciences (NCATS), 2013):
Where “and” joins values, the source holds several entries; their conditions need not be identical. Equal values may be shown once. About 64,000 (15%) of roughly 420,000 compounds were called active. Inconclusive results, whose numbers are uncertain, are shown with a selection of clear calls. Calls follow the shape of the dose curve; as a rule, active = well fitted inhibition curve with a large enough effect; inconclusive = small, poorly fitted or top-dose-only effect; inactive = flat fitted curve, though single readings scatter. Potencies of inconclusive entries are doubtful fits and often do not repeat.
% is scaled to controls: 0 for no effect and ±100 for the full control effect; potency is read from the fitted curve at half-maximal effect; tags tell the direction and shape of the fitted curve.

Test: qHTS for Inhibitors of human tyrosyl-DNA phosphodiesterase 1 (TDP1): qHTS in cells in absence of CPT; also: nearly all actives have a fitted effect of over 55% in size
Settings: DT40 Tdp1-/- hTDP1 cells, no CPT, ATP luminescence, 48 h; activity change, negative = growth inhibition: at 46.2 µM (top of the series) unless noted
Method in brief: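 Camptothecin absent (DMSO only). Human TDP1-complemented DT40 knockout cells, 400 cells/well, 37 °C for minimum 48 hr; ATP measured via CellTiter-Glo, 30 min dark incubation, luminescence.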
With `CC1(C)S[C@@H]2[C@H](NC(=O)C(C(=O)Oc3ccc4c(c3)CCC4)c3ccccc3)C(=O)N2[C@H]1C(=O)O` (stereo partly drawn) the Potency was “inactive”. In the case of `COc1ccc(C2(C(=O)NC3CCCCC3)CCOCC2)cc1OC`, the Potency is reported as “inactive”. For `C[C@H](NC(=O)c1ccco1)C(=O)Nc1cccc([N+](=O)[O-])c1`, the Potency was “inactive”. For `COc1ccc(-c2cn3nc(N4CCCC(C(=O)NCc5ccccc5C)C4)sc3n2)cc1` (stereo not drawn), the Potency was active: 10.3 µM. With `CCOCCCNC(=O)CN1C(=O)/C(=C/c2ccccc2)Sc2ccccc21` the Potency was inconclusive: 29.1 µM [inhibitor, single point]. For `CC(C)(C)C(=O)Nc1nnc(SCC(=O)NC2CCCCC2)s1`, the Potency was inconclusive: 1.03 µM [inhibitor, full curve]. In the case of `Oc1c(C(c2ccccc2)N2CCCCC2)ccc2ccccc12` (stereo not drawn), the Potency is reported as inconclusive: 29.1 µM [inhibitor, single point]. For `COc1ccc(CN=C2NN=C(c3cccc(OC)c3)CS2)cc1`, the Potency was inconclusive: 13 µM [inhibitor, partial curve, poor fit]. With `CC(NC(=O)c1cccc(S(=O)(=O)N2CCN(Cc3ccccc3)CC2)c1)c1ccc(Cl)cc1` (stereo not drawn) the Potency was inconclusive: 29.1 µM [inhibitor, single point]. With `CCn1c(SCC(=O)Nc2ccccc2C(=O)OC)nnc1-c1ccoc1C` the Potency was active: 29.1 µM. With `COc1ccccc1CCNC(=O)C(=O)NCC1OCCN1C(=O)c1ccc(Cl)cc1` (stereo not drawn) the Potency was “inactive”. With `Cc1cc(C)nc(NC2=NCCN2C(=S)Nc2c(C)cccc2C)n1` the Potency was “inactive”. For `O=C(c1ccccc1)N1CCOC12CCN(c1ncc(C(F)(F)F)cc1Cl)CC2`, the Potency was inconclusive: 20.6 µM [inhibitor, single point]. In the case of `CCOC(=O)CCCNC(=O)CSc1nc2ccc(OCC)cc2[nH]1`, the Potency is reported as “inactive”. For `CCOc1ccc(/C=C/C(=O)c2ccccc2)cc1`, the Potency was inconclusive: 18.4 µM [inhibitor, single point]. In the case of `Cc1ccc(C(=O)NCCc2nnc3n2CCN(Cc2ccnc4ccccc24)CC3)c(C)c1`, the Potency is reported as inconclusive: 18.4 µM [inhibitor, single point]. With `Cc1ccc([N+](=O)[O-])c(C(=O)N/N=C/c2cccs2)c1` the Potency was inconclusive: 9.2 µM [inhibitor, partial curve]. For `O=C(CN(CCc1ccccc1)S(=O)(=O)c1ccccc1)NCc1ccc(Cl)cc1`, the Potency was inconclusive: 29.1 µM [inhibitor, single point]. In the case of `CCC(C)CN1C(=O)CSCC1(C)C(=O)NCc1ccccc1` (stereo not drawn), the Potency is reported as inconclusive: 29.1 µM [inhibitor, single point]. In the case of `Cc1oc2ccc(OCC(N)=O)cc2c1C(=O)OC(C)C`, the Potency is reported as inconclusive: 20.6 µM [inhibitor, partial curve]. With `CCN1CCN(C(=O)C2CCN(c3nnc(-n4c(C)ccc4C)s3)CC2)CC1` the Potency was “inactive”. For `Cc1c(C(=O)N2CCCc3ccccc32)oc2ccccc12`, the activity change, negative = growth inhibition was inconclusive: -33.4% [inhibitor]. For `CN(C)S(=O)(=O)c1cccc(CSc2cccc[n+]2[O-])c1`, the Potency was “inactive”. With `COC(=O)[C@@H]1C[C@]2(OC(=O)c3ccccc3)C=CC(=O)C[C@@H]2N1C(=O)OCc1ccccc1` the Potency was active: 7.31 µM. For `O=C(CSc1nc2ccccc2c(=O)[nH]1)c1cccs1`, the Potency was active: 16.4 µM. For `CN(C)C(=O)c1cc(C(=O)c2ccc(C(F)(F)F)cc2)c[nH]1`, the Potency was inconclusive: 14.6 µM [inhibitor, partial curve]. With `CCCc1ccc(-c2cc(NC(=O)CSc3n[nH]c(N)n3)n(-c3ccccc3)n2)cc1` the Potency was inconclusive: 29.1 µM [inhibitor, single point]. For `COc1cccc(NC(=O)CSCn2nnc3c(=O)[nH]c(Cc4ccc(F)cc4)nc32)c1`, the Potency was active: 4.11 µM. With `O=C(Nc1ccccc1Cl)C1CCN(c2nc3ccccc3[nH]2)CC1` the Potency was “inactive”. For `CCOC(=O)c1oc2ccc(S(=O)(=O)Nc3ccc4c(c3)n(C)c(=O)n4C)cc2c1C`, the Potency was active: 20.6 µM. In the case of `COC(=O)[C@H](C)NC(=O)NC1CCCc2ccccc21` (stereo partly drawn), the Potency is reported as inconclusive: 32.6 µM [inhibitor, single point]. In the case of `Cc1ccc2c(c1)N(CC(=O)NCCCc1ccccc1)C(=O)c1cccnc1O2`, the Potency is reported as inconclusive: 14.6 µM [inhibitor, single point]. For `CCNC(=S)N1CCc2ccccc2C1`, the Potency was “inactive”. In the case of `Cc1cn([C@H]2C[C@H](O)[C@@H](/C=C/C(=O)N3CCN(Cc4ccc(F)cc4)CC3)O2)c(=O)[nH]c1=O`, the Potency is reported as “inactive”. With `Cc1cc(Cl)ccc1Nc1ncnc2onc(C)c12` the Potency was inconclusive: 20.6 µM [inhibitor, single point]. In the case of `Cc1ccc(Cl)cc1N1CCN(C(=O)c2cc(S(=O)(=O)N3CCCCCC3)cn2C)CC1`, the Potency is reported as inconclusive: 23.1 µM [inhibitor, single point]. With `O=C(Nc1ccc(F)c(Cl)c1)c1cc(C2CCCCN2C(=O)CCCc2ccccc2)on1` (stereo not drawn) the Potency was active: 18.4 µM. With `CCc1nc2nc(C)cc(C)n2c1Nc1ccc(OC)cc1` the Potency was active: 18.4 µM. With `Cc1ccc(-c2cc(C(=O)Nc3cnn(C(C)C)c3)no2)cc1` the Potency was inconclusive: 16.4 µM [inhibitor, partial curve]. In the case of `CN(C)c1ncc2nc(-c3ccccc3)c(=O)n(Cc3cccs3)c2n1`, the Potency is reported as “inactive”. For `CCCCN(C)CCCNC(=O)c1cc(Nc2ccc(OC)c(OC)c2)nc2ccccc12`, the Potency was inconclusive: 23.1 µM [inhibitor, partial curve]. With `O=C1NC[C@H](Cc2ccccc2)N(C[C@H]2CCCN2C[C@H](Cc2ccccc2)N2C[C@H](Cc3ccc(O)cc3)N(CCc3ccccc3)C(=O)C2=O)C1=O` the Potency was inconclusive: 29.1 µM [inhibitor, single point]. In the case of `O=C1C2C3C=CC(C4CC34)C2C(=O)N1c1ccc2c(c1)OCO2` (stereo not drawn), the activity change, negative = growth inhibition is reported as inconclusive: -34.1% [inhibitor]. With `Cc1cc(C(=O)O)ccc1-c1ccc(/C=C2\NC(=O)N(Cc3ccc(F)cc3)C2=O)o1` the Potency was inconclusive: 29.1 µM [inhibitor, single point]. For `CCOc1ccc(C(C(=O)NCC2CCCO2)N(CCc2cccc(C)c2)C(=O)c2snc(C(N)=O)c2N)cc1` (stereo not drawn), the Potency was inconclusive: 20.6 µM [inhibitor, partial curve]. In the case of `CCOC(=O)[C@H]1[C@H]2COc3cc(OC)ccc3[C@@H]2N2C(=O)N(c3cccc(F)c3)C(=O)[C@@]12C`, the Potency is reported as inconclusive: 18.4 µM [inhibitor, single point]. For `O=C(NCc1ccccc1Cl)c1ccc2c(c1)SC1=NS(=O)(=O)CCN12`, the Potency was inconclusive: 20.6 µM [inhibitor, partial curve]. In the case of `COc1ccc(C2=NN(C(=O)C(O)c3ccccc3)C(O)(C(F)(F)F)C2)cc1` (stereo not drawn), the Potency is reported as inconclusive: 29.1 µM [inhibitor, single point]. With `Cc1ccc(S(=O)(=O)Nc2c(C)n(C)n(-c3ccccc3)c2=O)cc1C(=O)NCc1ccco1` the Potency was inconclusive: 0.0052 µM [inhibitor, full curve, poor fit]. For `COc1cc(C(C)=O)ccc1OCC(=O)Nc1ccccc1N1CCCC1`, the Potency was inconclusive: 18.4 µM [inhibitor, single point]. In the case of `Cn1c(SCCN2CCCC2)nnc1C1CCN(S(=O)(=O)c2ccc(F)cc2)CC1`, the Potency is reported as “inactive”. In the case of `O=Nc1c(O)n(Cc2cccc(C(F)(F)F)c2)c2ccccc12`, the Potency is reported as “inactive”. With `CCCNC(=S)Nc1ccc(Nc2ccccc2)cc1` the Potency was inconclusive: 23.1 µM [inhibitor, partial curve]. For `O=C(CCn1c(=S)oc2ccccc21)NC1CCCCCCC1`, the Potency was “inactive”. With `COc1ccc(NC(=O)C2CCCN(S(=O)(=O)c3ccc4c(c3)CCCN4C(C)=O)C2)cc1` (stereo not drawn) the Potency was “inactive and inconclusive: 25.9 µM [inhibitor, single point]”. In the case of `CC1=C(C(=O)OC(C)C)C(c2ccc(C)o2)C(C(=O)OC(C)C)=C(C)N1`, the Potency is reported as inconclusive: 29.1 µM [inhibitor, single point]. With `CN(NC1OC(=O)c2ccccc21)c1ccc(Cl)cc1[N+](=O)[O-]` (stereo not drawn) the Potency was “inactive”. In the case of `CC1=CSC2=NC(=O)/C(=C\c3cccn3-c3ccc([N+](=O)[O-])cc3)C(=N)N12`, the Potency is reported as inconclusive: 25.9 µM [inhibitor, single point]. In the case of `Cc1ccc(C(C(=O)NC2CCCC2)N(Cc2cccs2)C(=O)CNC(=O)c2cccs2)o1` (stereo not drawn), the Potency is reported as inconclusive: 29.1 µM [inhibitor, single point]. For `CN(C)S(=O)(=O)c1cccc(NC(=S)N2CCc3ccccc32)c1`, the Potency was inconclusive: 16.4 µM [inhibitor, partial curve]. For `C=CCNC(=O)Nc1ccc(OCC)cc1`, the Potency was inconclusive: 25.9 µM [inhibitor, partial curve]. In the case of `CCn1c(C(O)c2cc(OC)c(OC)c(OC)c2)nc2ccccc21` (stereo not drawn), the Potency is reported as inconclusive: 29.1 µM [inhibitor, single point]. For `ClC1(Cl)CC1CSc1ncn[nH]1` (stereo not drawn), the Potency was “inactive”. With `COc1ccc(-n2c(=O)c(-c3ccc(F)cc3)nc3cnc(N4CCNCC4)nc32)cc1` the Potency was inconclusive: 29.1 µM [inhibitor, single point]. In the case of `COc1ccc(C(N)c2csc(Nc3ccc(C(=O)c4ccccc4)cc3)n2)cc1` (stereo not drawn), the Potency is reported as inconclusive: 29.1 µM [inhibitor, single point]. With `CCc1cccc2c(C(=O)CN3C(=O)NC4(CCCCC4)C3=O)c[nH]c12` the Potency was active: 5.8 µM. In the case of `CCOc1ccc(-n2c(SCC(=O)Nc3ccccc3C)n[nH]c2=O)cc1`, the Potency is reported as “inactive”. In the case of `COc1ccc2[nH]c3c(c2c1)CCN1C(=O)C(CC(=O)NCc2ccco2)C[C@H](C(=O)N2CCCCC2)[C@@]31C` (stereo partly drawn), the Potency is reported as inconclusive: 25.9 µM [inhibitor, single point].
